Measured values from the RNAGym collection of RNA variant scans (doi:10.7554/elife.90254).
The source gives no read counts; variants with many changes may rest on few reads.

B1: LINE1-mini (parent)
chain: GGCAGAGCUCAACACAGCGUGGCAAAGUGGCUGUGGCUAGACUGCC

Variants of: B1
Test: self-cleavage, relative activity (ratio to wild type); higher = more cleavage; in vitro, sequencing; the parent is a self-cleaving ribozyme

Row | Variant | self-cleavage
1 | G2C C3U C18A | 0.08
2 | A6G A12C G17A U32G A41C | 0
3 | G2U G35A G40U | 0.06
4 | G19A G21C G29U | 0.33
5 | C15A G21C G22A | 0.01
6 | G7U A11G C13G A24C U28G G40C C45A | 0.01
7 | A12G A26G U32A U34A G35U A41U | 0.11
8 | G2C C3U G21U G36U | 0.09
9 | G2U U9A U43A | 0.03
10 | C15U U34A G35C U43A | 0.07
11 | C3A A4C G5C G30U C31G U43C | 0.03
12 | C8A A11G G36C | 0
13 | A14G C31A A39U | 0.04
14 | G2U A11U U20C A25G G36A C37A A41U C42U | 0
15 | G1A G17A U20A G33C G35U C37G A41G | 0
16 | A12G C37G C45U | 0.04
17 | C10A A14U U20C G36U U38C | 0.05
18 | A11C U20G G36A | 0.01
19 | G2U G35U C46A | 0.35
20 | U28A G36U G40A U43G C45U | 0.16
21 | C8U A11U A25G C31A | 0.03
22 | G21U U34G U38A | 0.15
23 | G21U A26C C42G C45U | 0.07
24 | G17C C18G G35A G44U | 0.02

Row | Variant | self-cleavage
25 | G5A A6C G36U | 0.98
26 | C18A G29U G36C C45A | 0.03
27 | C8A C13G U32G | 0.34
28 | G7A C10A U38A | 0.04
29 | A16U G27C C37U U43A | 0.45
30 | C10A A14C G35A G36U A41C | 0
31 | G1A C10G A12C U38G G40U | 0.03
32 | A14U C15U A16C A41G | 0.35
33 | A12U G30C A39U | 0.17
34 | C3U G5A C10U C15A A16U A26G G40C | 0.1
35 | C13U C31A G33C C42A G44U | 0.03
36 | A12C A26U C46U | 0.01
37 | A11U C18G C45U | 0.03
38 | A4G C13U A24G G33U | 0.08
39 | G2A A12C A14U A39U | 0.03
40 | A6G A14G G29U | 0.03
41 | G1A A11C A24C G29A | 0.04
42 | C13A G17A G30U | 0.04
43 | U9G U20C G22U G40A | 0.01
44 | U9C C13A C31G G40U | 0
45 | C15A G17C G27U G40A | 0.13
46 | G2A A6U G17U | 1.48
47 | A4C U9G A16C G29U U34G | 0.76
48 | G1U A16U C31U | 0.04

Row | Variant | self-cleavage
49 | A12U C13U A39C G44U | 0.09
50 | A4G G29U U34C G36A | 0.21
51 | G7A C10U G36C | 0.05
52 | G2A U9A G19U U20A | 0.13
53 | C10A A11C G21U | 0.01
54 | G5C A12U A16G A24C U32C | 0.02
55 | G35C G40A C42A U43G | 0.12
56 | G1A G17C C18U G36C U38C | 0.01
57 | G22A G33U G36C U43G | 0
58 | C10A G17A G22U G36C | 0.04
59 | C10G A11G C37U C46A | 0
60 | A11G C15A C42G | 0.01
61 | G1C G19C U28A G40U | 0
62 | A12G G27C U34C C37G | 0.02
63 | G7A A11U C13U A41G | 0.12
64 | A6G G33A G40A | 0.04
65 | G7A A25C C46A | 0.03
66 | G1C C18U G22C U28G | 0.02
67 | U20C G21U A39U | 0.09
68 | A6G C15U G22C G40A | 0.03
69 | C18A G35C A39C | 0.05
70 | U9A G19A G33A U43A | 0.18
71 | G5A G22U G35A | 0.16
72 | G17U C45U C46A | 0.04

Row | Variant | self-cleavage
73 | C10G C15A A24G G30U | 0.03
74 | G7U G17U G35C | 0.08
75 | U9C U20A G30C | 0.01
76 | C13U U32A G35C G44A | 0.06
77 | G2C C13A U28A G29C G33A | 0.04
78 | G7C A14U A16G G40U G44C | 0.01
79 | G30A G36C G40C A41C | 0.14
80 | U9A A12C A16G A24C U34G | 0.03
81 | C3U C23A A24U G44C | 0.39
82 | A4U C10A G19C G27U G33U | 0.02
83 | G22U C23A A24U U38C C45A C46U | 0.38
84 | A4G C10A A12C G30U | 0.03
85 | C8A U20G A25C G33A | 0.49
86 | C8G A26C G33A G36C C46U | 0.03
87 | A4U C15A G44U | 0.07
88 | C3U G7C G17U | 0.08
89 | C8A C15U G29A G33U A41C C46A | 0.19
90 | G2U A11G G21U C31U G36C | 0.01
91 | G1A U9A A39C | 0.04
92 | A6G U9C A11G A16G C23G | 0
93 | C10U C23A A24U G36U A41C C42U U43G | 0.01
94 | U20G A24U U28A | 0.4
95 | G5C C23G C31A | 0.04
96 | G19A G21C G44C | 0.04

Row | Variant | self-cleavage
97 | G1A C10U A14G C23U A26G G27A | 0.91
98 | G27U U38C A41U C42G | 0.04
99 | G2C A11C G17A | 0.01
100 | G5A G7U G27A C31A G44A | 0.1
101 | A6G C10A G29U G33A A41C | 0.01
102 | A26G G35U C42U | 0.03
103 | U28C G29U G35C A41G | 0.03
104 | C15G G22A U28G | 0.02
105 | A12U A14C G17C C18U C23A G33C | 0.01
106 | A14C G33C G35C | 0.05
107 | G7A A16C G36U | 0.02
108 | G29C G30A C46A | 0.64
109 | G2U A6C G19U | 0.02
110 | C23U A26U U38C | 0.37
111 | G5A G27A G29A G30A | 0.12
112 | C3U G29A C37G | 0.01
113 | G35A C37U C42A | 0.01
114 | G5U A25U A26G C37A C45U C46U | 0.03
115 | C3A A6G A25C G40A G44U C46U | 0.11
116 | A6G C13A A41G | 0.03
117 | G5U C8U C15G U28C | 0.12
118 | A4U C37U A39U | 0.04
119 | G1C C10A G21U | 0.04
120 | A26C U32A U38A G40U | 0.01

Row | Variant | self-cleavage
121 | G1A U9G C10U U20A | 0.07
122 | A6C C10A G17A | 0.03
123 | C13U G19C A41U | 0.26
124 | G22A A25U A26C G27U | 0.59
125 | C10U C15U C23A A24U A26G U32G C42G | 0.08
126 | C31U C37G U43C | 0.2
127 | G5C U34C C37A | 0.03
128 | C31G C42U G44C | 0.03
129 | G1U G5U A6U C8A G27U | 0.06
130 | G2U C13A U38A G40A | 0.01
131 | G2C C3G G5A A11C | 0.06
132 | G21U G33C C42U | 0.04
133 | C8A C13A G30A G40U | 0.08
134 | C15U G30A U32C C42A | 0.16
135 | A4C C42U G44U | 0.2
136 | G7C G17U G19C C37U C45U | 0.01
137 | C10G G21U U32G G44U C46A | 0.01
138 | U20C C23A C31A | 0.06
139 | A16C G30A A41G | 0.04
140 | G5A U20G C31G G33C | 0.03
141 | G7A C37A U38G | 0.01
142 | G30C C42A G44C C46U | 0.01
143 | C23G A25G G30A | 0.08
144 | A6G A11G G30C C42G | 0.02

Row | Variant | self-cleavage
145 | C3U G5U G36U | 0.23
146 | G2U A11U A12C U32G G40A C46U | 0
147 | A4C C18A G21A A39C | 0.05
148 | C10U A14U G19U U34G | 0.21
149 | A11G C13A G30U U34C C42U | 0.02
150 | A4G G21U G29A G30U | 1.17
151 | C3U A6U C10A | 0.25
152 | G7A C8G U34A | 0.08
153 | G1C U9A A26G | 0.02
154 | G5U U28C G44U | 0.04
155 | G2A A12C G36A | 0.17
156 | U9C C15A C23A G29U U38A | 0.02
157 | A26G C37U G40A | 0.1
158 | C3A A14C G21U C31U U32A | 0.13
159 | C8U A24C G29A | 0.15
160 | G21A A25G G40U | 0.3
161 | G7C G22C C46A | 0.05
162 | G2A C3G C23U | 0.59
163 | C8A A11G U20A C31U | 0.01
164 | C3G C8A G19U | 0.4
165 | C3U C13U G30A A39C | 0.07
166 | A4U A12U C45G | 0.03
167 | U9A C13U C23U U28A | 0.12
